Experimental data reported in PubChem BioAssay AID686979 (National Center for Advancing Translational Sciences (NCATS), 2013).
The campaign covered roughly 420,000 compounds. About 50,000 (12%) were called active. Inconclusive means that the source gave no clear call. Such entries were picked first, then a sample of the others. Calls come from the whole dose curve; as a rule, active = well fitted inhibition curve with a large enough effect; inconclusive = small, poorly fitted or top-dose-only effect; inactive = flat fitted curve, though single readings scatter. No potency is given beside an inconclusive call; the fits are too rough.

Assay: qHTS for Inhibitors of human tyrosyl-DNA phosphodiesterase 1 (TDP1): qHTS in cells in presence of CPT; note: nearly all actives have a fitted effect of over 55% in size
Conditions: chicken DT40 Tdp1-/-;hTDP1 cells + 20 nM CPT, ATP luminescence, 48 h; activity change, negative = growth inhibition: at 46.2 µM (top of the series)
Outline: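 Chicken DT40 Tdp1-/- cells complemented with human TDP1, 400 cells/well, exposed to compounds plus 20 nM camptothecin for at least 48 h at 37 C; viability read as ATP content by CellTiter-Glo luminescence.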
% is set by controls: 0 for no effect and ±100 for the full control effect; potency is the fitted concentration of half-maximal effect; tags give direction and shape of the fitted curve.

Question: Which Potency does the source give for Cc1nc(OCC(C)C)c2sc3nc4c(cc3c2n1)COC(C)(C)C4 here?
Answer: inconclusive [inhibitor, single point]

Question: For Clc1cccc(CSc2nnc(-c3ccccn3)n2Cc2ccco2)c1, which Potency is on record?
Answer: active: 16.4 µM

Question: With COc1ccc(Cn2nnc(C(=O)Nc3ccc4c(c3)OCCO4)c2N)cc1Br as the molecule, how does the Potency read?
Answer: active: 18.4 µM

Question: For COC(=O)c1ccccc1CC1Cc2cc3c(cc2C1=O)CCC3 (stereo not given), which Potency is on record?
Answer: inconclusive [inhibitor, single point]

Question: With Cc1c(C(=O)NCC(C)(C)N2CCOCC2)oc2ccccc12 as the molecule, how does the “activity change, negative = growth inhibition” value read?
Answer: inactive: -5.92%

Question: Which Potency does the source give for N#Cc1c(-c2ccccc2)c(-c2ccccc2)nn(CC(=O)NNC(=O)Nc2ccc(Cl)cc2)c1=O here?
Answer: inconclusive [inhibitor, single point]

Question: Which Potency does the source give for CCC1([N+](=O)[O-])COC(C=Cc2ccccc2)OC1 (stereo not given) here?
Answer: inconclusive [inhibitor, full curve, poor fit]

Question: With CC(=O)Nc1cccc(C(=O)OCC(=O)NNC(=O)c2cccs2)c1 as the molecule, how does the “activity change, negative = growth inhibition” value read?
Answer: inactive: -4.06%

Question: Which Potency does the source give for COCCNC(=O)c1cnn(-c2cccc(C)c2)c1-n1cccc1 here?
Answer: inconclusive [inhibitor, single point]

Question: Which Potency does the source give for CCOCCCn1c(=N)c(C(=O)NC(C)c2ccccc2)cc2c(=O)n3cccc(C)c3nc21 (stereo not given) here?
Answer: active: 16.4 µM

Question: With CCSC1OC(C(COC(C)=O)OC(C)=O)C(OC(C)=O)C1NC(C)=S (stereo not given) as the molecule, how does the “activity change, negative = growth inhibition” value read?
Answer: inactive: 18.2%

Question: For CC(C)OC(=O)c1ccc(NC(=O)c2cncc(Br)c2)cc1, which Potency is on record?
Answer: inconclusive [inhibitor, single point]

Question: For COc1ccc(/C=N/Nc2cc(N3CCOCC3)ncn2)c(OC)c1, which “activity change, negative = growth inhibition” value is on record?
Answer: inactive: 4.34%

Question: For COc1ccc(C(=O)NNc2ncnc3c2cnn3-c2ccc(C)cc2C)cc1, which Potency is on record?
Answer: inconclusive [inhibitor, partial curve]

Question: With O=C(Cc1ccc([N+](=O)[O-])cc1)N/N=C/c1cccs1 as the molecule, how does the “activity change, negative = growth inhibition” value read?
Answer: inactive: -8.53%

Question: With COc1ccc(S(=O)(=O)NNC(=O)Nc2ccc(F)cc2)cc1 as the molecule, how does the “activity change, negative = growth inhibition” value read?
Answer: inactive: -0.551%

Question: With Cc1ccc(C(=O)COC(=O)c2cn(-c3ccccc3)nc2-c2ccccc2)cc1[N+](=O)[O-] as the molecule, how does the “activity change, negative = growth inhibition” value read?
Answer: inactive: 0.2%

Question: Which “activity change, negative = growth inhibition” value does the source give for CCOC(=O)C1=C(N)OC2=C(C(=O)CC(C)(C)C2)C1c1cc(CSc2nnnn2C)cs1 (stereo not given) here?
Answer: inactive: -19.1%

Question: For CCC(C)NCC(=O)Nc1ccc(S(N)(=O)=O)cc1 (stereo not given), which Potency is on record?
Answer: inconclusive [inhibitor, single point]

Question: For C[C@H](O)[C@@H]1C(=O)N2CCc3ccc(-c4cccc(F)c4)cc3[C@@H]2C[C@@H]1N(C)C(=O)C(C)(C)C, which Potency is on record?
Answer: inconclusive [inhibitor, single point]

Question: For CC(=O)NC12CC3CC(C1)CC(C(=O)N1CCN(S(=O)(=O)c4cccc(C(F)(F)F)c4)CC1)(C3)C2, which Potency is on record?
Answer: active: 7.31 µM

Question: With CCOC(=O)C1(Cc2cccc(OC)c2)CCN(Cc2cccc(OC)c2O)CC1 as the molecule, how does the Potency read?
Answer: active: 23.1 µM

Question: With O=c1oc2ccc(Cl)cc2nc1/C=C(\O)c1cccs1 as the molecule, how does the Potency read?
Answer: inconclusive [inhibitor, single point]

Question: Which Potency does the source give for Cc1cc(CNC(=O)C2(C(F)(F)F)C/C(=C\Cc3ccccc3)CCCO2)nn1C (stereo not given) here?
Answer: inconclusive [inhibitor, single point]

Question: Which “activity change, negative = growth inhibition” value does the source give for COCCN1C[C@@H](CO)O[C@@H](n2cnc3c(NCc4cc(OC)c(OC)c(OC)c4)ncnc32)C1 here?
Answer: inactive: -22.2%

Question: With COc1ccc(C(=O)NC(Nc2ccccc2)C(Cl)(Cl)Cl)cc1 (stereo not given) as the molecule, how does the “activity change, negative = growth inhibition” value read?
Answer: inactive: -23.1%

Question: For Cc1ccc2occ(CC(=O)Nc3ccc(Cl)c(C(F)(F)F)c3)c2c1, which Potency is on record?
Answer: active: 20.6 µM

Question: For Cc1sc2nc(CSc3nc4ccccc4c(=O)n3CCCN3CCOCC3)[nH]c(=O)c2c1C, which Potency is on record?
Answer: inconclusive [inhibitor, single point]

Question: For COC(=O)c1cc2c(C)[nH]c(C)c2cc(C(=O)OC)c1=O, which Potency is on record?
Answer: active: 7.31 µM

Question: With Cc1cc(=O)oc2c(C)c(OCC(=O)N3CCN(C(=O)C4COc5ccccc5O4)CC3)ccc12 (stereo not given) as the molecule, how does the Potency read?
Answer: inconclusive [inhibitor, single point]

Question: With c1ccc(-c2nnc(N3CCN(c4ccccc4)CC3)nc2-c2ccccc2)cc1 as the molecule, how does the Potency read?
Answer: inconclusive [inhibitor, single point]

Question: With Cc1ccc2nc3c(cc(C(=O)NCCN4CCOCC4)c(=N)n3CCCN3CCOCC3)c(=O)n2c1 as the molecule, how does the “activity change, negative = growth inhibition” value read?
Answer: inactive: -7.03%

Question: Which Potency does the source give for CCOc1ccc(NC(=O)c2ccc(NC(=S)NC3CCCCC3)cc2)cc1 here?
Answer: active: 20.6 µM

Question: Which “activity change, negative = growth inhibition” value does the source give for Cc1ccc(S(=O)(=O)N2[C@@H](CCO)OC[C@H]2C(C)C)cc1 here?
Answer: inactive: -3.3%

Question: For N=c1c2c(ncn1Cc1ccco1)Oc1c(ccc3ccccc13)C2c1ccccc1 (stereo not given), which Potency is on record?
Answer: inconclusive [inhibitor, single point]

Question: Which Potency does the source give for CCCCOc1ncnc2c1[nH]c1ccc(OC)cc12 here?
Answer: inconclusive [inhibitor, full curve, poor fit]

Question: For COC(=O)C1CSC2c3ccccc3C(=O)N12 (stereo not given), which Potency is on record?
Answer: active: 18.4 µM

Question: Which “activity change, negative = growth inhibition” value does the source give for O=C(COC(=O)[C@@H]1CC(O)CN1S(=O)(=O)c1ccccc1[N+](=O)[O-])Nc1ccc2ccccc2c1 (stereo not given in full) here?
Answer: inactive: 5.01%

Question: Which Potency does the source give for O=S(=O)(NCC(c1cccnc1)N1CCN(Cc2ccccc2)CC1)c1ccc(Cl)cc1 (stereo not given) here?
Answer: inconclusive [inhibitor, partial curve]

Question: Which Potency does the source give for COC(=O)c1nc2n(n1)C(c1cc(OC)ccc1OC)C=C(c1ccc(Br)cc1)N2 (stereo not given) here?
Answer: inconclusive [inhibitor, single point]

Question: With CC(C)NC(=O)/C(=C/c1cn(-c2ccccc2)nc1-c1cccc([N+](=O)[O-])c1)NC(=O)c1ccccc1 as the molecule, how does the “activity change, negative = growth inhibition” value read?
Answer: inactive: -28.6%

Question: Which Potency does the source give for CCc1ccc(CN(C(=O)Nc2cccc(Cl)c2)c2ccccn2)cc1 here?
Answer: active: 18.4 µM

Question: With COC[C@H](c1ccc(C(F)(F)F)cc1)N1CCN(C2(C)CCN(C(=O)c3c(C)ncnc3C)CC2)C[C@H]1C as the molecule, how does the Potency read?
Answer: inconclusive [inhibitor, single point]

Question: For Oc1ccc(Br)cc1CNc1cnc2ccccc2c1, which Potency is on record?
Answer: inconclusive [inhibitor, single point]

Question: Which Potency does the source give for O=C(c1ccccc1F)N1c2nc(-c3ccco3)nn2C2(CCCCC2)[C@@H]2CCCC[C@@H]21 here?
Answer: inconclusive [inhibitor, single point]
